{"source": "PubChem BioAssay (Tox21)", "note": "Inconclusive means that the source gave no clear call. Such entries were picked first, then a sample of the others. Potencies beside an inconclusive call are fits to weak or partial responses and may not hold up. Activity calls are given as the source filed them. The call rests on the fitted dose curve; in most records, active means well fitted activation curve with a large enough effect in the repeat runs; inconclusive means weak or mixed curves; inactive means flat fitted curve, though single readings scatter. On the % scale 0 is the no-effect control and ±100 the full control effect; potency means the concentration at half of the fitted maximal effect; tags describe the fitted curve by direction and shape."}
{"assay": "A CellTox Green Cytotoxicity Assay to monitor cytotoxicity in HepG2 cells - 32 hour (AID 1224883); further: nearly all actives have a fitted effect of over 50% in size", "conditions": "CellTox Green fluorescence; series mostly up to 76.8 µM; cytotoxicity increase: at the top concentration", "in_short": "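Measurements at 0, 8, 16, 24, 32 and 40 h of treatment captured CellTox Green fluorescence in HepG2 cells that had been co-plated with reagent and preincubated 5 h at 37 C/5% CO2.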"}
{"smiles": "CCCCCCCCCCCCCCCCCC(=O)OCC(O)CO", "note": "(configuration not stated)", "Potency": "inactive"}
{"smiles": "COC(=O)C1=C(C)NC(C)=C(C(=O)OCCCN2CCC(c3ccccc3)(c3ccccc3)CC2)C1c1cccc([N+](=O)[O-])c1", "note": "(configuration not stated)", "Potency": "inconclusive: 26.8 µM [activator, single point]"}
{"smiles": "CN1CCC(=C2c3ccccc3C=Cc3ccccc32)CC1", "Potency": "active: 26.8 µM"}
{"smiles": "CC(C(=O)O)c1ccc(CC2CCCC2=O)cc1", "note": "(configuration not stated)", "cytotoxicity increase": "inactive: -16.5% [at 35.3 µM]"}
{"smiles": "c1ccc2c(c1)Oc1ccccc1S2", "Potency": "inconclusive: 61.6 µM [activator, single point]"}
{"smiles": "c1ccc2cc(Nc3ccc(Nc4ccc5ccccc5c4)cc3)ccc2c1", "Potency": "inconclusive: 12.3 µM [activator, single point]"}
{"smiles": "Cc1ccc(NC(=O)c2ccc(CN3CCN(C)CC3)cc2)cc1Nc1nccc(-c2cccnc2)n1", "Potency": "inconclusive: 26.8 µM [activator, partial curve, poor fit]"}
{"smiles": "O=C(O)c1cc(O)c2c(c1)C(=O)c1cccc(O)c1C2=O", "cytotoxicity increase": "inactive: -3.26%"}
{"smiles": "CC(=O)Nc1ccc(CC(=O)O)cc1", "Potency": "inactive"}
{"smiles": "C=C[C@@]1(C)CC(=O)[C@]2(O)[C@@]3(C)[C@@H](O)CCC(C)(C)[C@@H]3[C@H](O)[C@H](OC(C)=O)[C@@]2(C)O1", "Potency": "inactive"}
{"smiles": "CC(C)OC=O", "Potency": "inconclusive: 1.38 µM [activator, partial curve, poor fit]"}
{"smiles": "NNc1nc(-c2ccc(N)cc2)cs1", "cytotoxicity increase": "inactive: -12.3%"}
{"smiles": "CC(O)C#CC(C)O", "note": "(configuration not stated)", "Potency": "inconclusive: 21.7 µM [activator, partial curve, poor fit]"}
{"smiles": "CC(=O)OCC=C(C)C", "Potency": "inconclusive: 40.5 µM [activator, single point]"}
{"smiles": "COCCCC/C(=N\\OCCN)c1ccc(C(F)(F)F)cc1", "Potency": "active: 26.8 µM"}
{"smiles": "CCCCOc1ccc(CC(=O)NO)cc1", "Potency": "inconclusive: 26.8 µM [activator, single point]"}
{"smiles": "O=C1CCCc2c(O)cccc21", "Potency": "inconclusive: 10.7 µM [activator, single point]"}
{"smiles": "CCCCN(CCCC)CC(O)c1cc(Cl)cc2c1-c1ccc(Cl)cc1/C2=C/c1ccc(Cl)cc1", "note": "(configuration not stated)", "Potency": "active: 23.9 µM"}
{"smiles": "CC1(C)NC(=O)NC1=O", "Potency": "inactive"}
{"smiles": "Cc1cccc(C)c1NC(=O)CN1CCN(CCCC(c2ccc(F)cc2)c2ccc(F)cc2)CC1", "Potency": "active: 23.9 µM"}
{"smiles": "Cc1cc2c(cc1C(F)(F)F)N(C(=O)Nc1ccc(Oc3cccnc3C)nc1)CC2", "Potency": "inconclusive: 55.8 µM [activator, partial curve, poor fit]"}
{"smiles": "C[N+](C)(C)CCCCCC[N+](C)(C)C", "Potency": "inactive"}
{"smiles": "COC(=O)C1=C(C)NC(COC(N)=O)=C(C(=O)OC(C)C)C1c1cccc(Cl)c1Cl", "note": "(configuration not stated)", "Potency": "inconclusive: 26.8 µM [activator, single point]"}
{"smiles": "Oc1ccc(CCNCCCCCCNCCc2ccccc2)cc1O", "Potency": "inconclusive: 26.8 µM [activator, single point]"}
{"smiles": "c1ccc2c(c1)ccc1cc3c(ccc4ccccc43)cc12", "Potency": "inconclusive: 6.11 µM [activator, single point]"}
{"smiles": "COc1cc(C(C)C)c2c(c1)S(=O)(=O)N(COc1cc(=O)n3cccc(OCCN4CCCCC4)c3n1)C2=O", "Potency": "inconclusive: 13.1 µM [activator, single point]"}
{"smiles": "Cc1[nH]c(=O)c(C#N)cc1-c1ccncc1", "Potency": "inconclusive: 21.9 µM [activator, single point] and inactive"}
{"smiles": "CCCCCCOc1ccc(O)cc1", "Potency": "inconclusive: 21.9 µM [activator, partial curve, poor fit]"}
{"smiles": "COc1ccc(-c2nc3ccc(C4=NNC(=O)CC4C)cc3[nH]2)cc1", "note": "(configuration not stated)", "Potency": "inconclusive: 21.3 µM [activator, partial curve]"}
{"smiles": "C#C[C@]1(O)CC[C@H]2[C@@H]3CCc4cc(OC5CCCC5)ccc4[C@H]3CC[C@@]21C", "Potency": "inconclusive: 26.8 µM [activator, single point]"}
{"smiles": "Cc1ccc(CCn2c3c(c4cc(Cl)ccc42)CN(C)CC3)cn1", "Potency": "inconclusive: 26.8 µM [activator, single point]"}
{"smiles": "N#CSc1ccc(N)c([N+](=O)[O-])c1", "Potency": "inconclusive: 62 µM [activator, single point]"}
